# Measured values reported in the supplement of paper PMC4466236.
# Whole data set: some 33,000 sequences, median “E-score (dimensionless, -0.5 to 0.5)” near -0.058, cut for the highest 2% near 0.35. This is one part of the list.
# Test system: MvaT
# Test: PBM 8-mer E-score (mean of HK and ME arrays) (E-score (dimensionless, -0.5 to 0.5)); higher = stronger relative binding preference; most listed sequences are background and not binding sites
# How it was run: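 Reported values are rank-based E-scores, taken as the mean of two universal arrays and parsed with a custom script. Each 8-mer score falls between -0.5 and 0.5. The arrays, ME and HK, were double-stranded 60-mers with a constant 25-mer primer region and a variable 35-mer region covering all 8-mers. They were probed, by an earlier protocol, with full-length P. aeruginosa MvaT carrying an N-terminal glutathione S-transferase fusion.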
row,Sequence,PBM 8-mer E-score
1,AAGTTAGT,0.322
2,ACAGGGTA,-0.0199
3,GGGGGGGA,-0.241
4,AAGTAACG,0.257
5,GGGGGTAA,-0.239
6,ATGGATAG,0.0416
7,AGTTGCGC,0.0513
8,ATAGACAA,0.163
9,GAATACGA,0.0283
10,TCACATGA,-0.0716
11,GGGGACAA,-0.0629
12,CACGAGTA,-0.0592
13,AACTACTG,0.205
14,CCCCTGCC,-0.335
15,AACAGGGT,-0.031
16,ACCAAAAT,0.209
17,CATGCATC,-0.115
18,CGATAACG,0.0686
19,AGGCCAGC,-0.293
20,GATAACGC,0.0903
21,CAGATACA,0.117
22,ACCCCCCC,-0.291
23,ACCCCGGC,-0.137
24,CTCAAGTA,0.178
25,TAGGTACA,0.0141

row,Sequence,PBM 8-mer E-score
1,CAACATCA,0.0517
2,CCTGCGGA,-0.141
3,GTCTTTGA,-0.0878
4,CCACGATC,-0.184
5,ACGTTTAT,0.249
6,AGCAGACG,-0.169
7,CGCTGCCA,-0.217
8,ACACGACA,-0.098
9,TCCGTAAA,-0.0668
10,GTAGAGCA,-0.0664
11,AGCCGGCG,-0.252
12,CTTCTCAC,-0.186
13,CGACCCAG,-0.208
14,CCCTCGGA,-0.125
15,CAGGCCGA,-0.213
16,ACAACGAT,0.0837
17,CCTCGCAC,-0.11
18,TCTGACCA,-0.036
19,ACTCTGGG,0.0708
20,AGCGCTCG,-0.243
21,CCTCATAA,-0.0267
22,AGTTGGTG,0.0483
23,ACATGGCT,-0.0239
24,ATGGATTA,0.214
25,ATCATTGC,0.00293

row,Sequence,PBM 8-mer E-score
1,GCGGCGAC,-0.346
2,ACAACCAC,0.0264
3,CCACCGGA,-0.175
4,AGACAAGC,-0.0951
5,CTTCGGAC,-0.239
6,TGATACCA,0.0438
7,ATCGCCCA,-0.125
8,CTGACGTC,-0.135
9,GAGAGATC,-0.197
10,AATTGGGT,0.121
11,TCGATGCA,-0.0529
12,AAATCGAC,-0.0205
13,AAACGCTC,-0.0864
14,CGTAGCAC,-0.112
15,TAAAGCCA,0.031
16,TCATGTCA,0.079
17,CCAAGTCC,-0.215
18,AAGGCGCC,-0.206
19,CATTATAC,0.295
20,CTCATTCA,-0.291
21,ATGAGCCC,-0.275
22,GCGTTGGA,-0.221
23,CCAGCCTC,-0.297
24,CTTAAGAA,0.239
25,GAGCCTGC,-0.246

row,Sequence,PBM 8-mer E-score
1,AAACGGAC,-0.0276
2,GCCCGGAA,-0.0999
3,ACGTCCTG,-0.093
4,CAGAATAG,0.00967
5,CTGGGATC,-0.23
6,CCACCGCG,-0.131
7,TACGTCGA,0.0167
8,TACTCCGA,0.00852
9,CTAACATC,0.226
10,ACAAGGCT,-0.25
11,CCAGTGAG,-0.126
12,CCTGTCCA,-0.228
13,AATCGTCC,-0.0377
14,CTTCCTTA,0.0214
15,CCCTGTGC,-0.142
16,GATGTTGA,0.0183
17,CAAGCTGA,-0.202
18,ATTATGGA,0.218
19,AAATGGGT,0.0809
20,CTGATCTC,-0.247
21,CAAATCTC,-0.0992
22,GCACAACC,-0.138
23,CAGTTGCC,-0.278
24,GGGGTTTA,-0.193
25,ACCCTACT,-0.0752

row,Sequence,PBM 8-mer E-score
1,AAGGGGCA,-0.214
2,TGCAGCAA,0.00169
3,GAAACGCC,-0.151
4,AGTTTCGG,0.0118
5,ATCGCTGC,-0.0586
6,ATGCAATG,-0.0649
7,CCGGGGGA,-0.254
8,AGACAGGA,-0.156
9,GAGGCATC,-0.2
10,GAATAGGC,-0.136
11,CGGCCTCC,-0.262
12,AAACGATC,-0.0835
13,AGCTGACC,-0.269
14,CGCGAACG,-0.173
15,AAGGCCGA,-0.204
16,ACCTACGC,-0.167
17,ATGGACGC,-0.122
18,AGACGTAG,-0.189
19,AGTAACAT,0.284
20,AGCATGAT,-0.0581
21,GGGATCCC,-0.246
22,CAGTCTCA,-0.0899
23,ATGCCAGC,-0.153
24,AGGGCACA,-0.247
25,GATCCTCA,-0.283

row,Sequence,PBM 8-mer E-score
1,AGCATTAC,0.0736
2,GGGATGAA,0.0505
3,AAAACTTC,0.149
4,AGTGCTTC,-0.151
5,GAAGGTGA,-0.104
6,ACTACTGA,0.0939
7,ATAAACCA,0.331
8,ATCGCCTC,-0.24
9,ACTGCCGG,-0.0714
10,AAAGTATC,0.211
11,AGGAATAG,-0.104
12,CTCGGCCC,-0.198
13,ACTCACAG,-0.0989
14,CTCCGATC,-0.186
15,TGCCTGAA,-0.0387
16,AATCTCCG,0.0198
17,GAGGCATA,-0.0069
18,CATTTCAA,0.067
19,GCTGGAAA,-0.0389
20,GCAATCGC,-0.0395
21,ATTGTCTA,0.176
22,ATCTGATA,0.188
23,CCACAATA,0.182
24,CTAATTGA,0.11
25,CGTAGGCA,-0.226

row,Sequence,PBM 8-mer E-score
1,AATGGCTC,-0.0946
2,GCTCGTTA,0.0378
3,ATAACAAC,0.228
4,ATATTAAC,0.434
5,GCATACCC,0.0205
6,CTCTGCCA,-0.234
7,CTCGGACA,-0.204
8,CCTAACTC,-0.00572
9,CAAACGTC,0.0149
10,GATATCAA,0.25
11,GAACTGCA,-0.0114
12,TGTGGCAA,0.0676
13,GACTCCAA,0.021
14,CAAGACTA,0.15
15,CATGGGAG,-0.242
16,GCGACAAA,0.0622
17,ACACTGAA,0.084
18,ATCTCAAA,0.0937
19,CAGACTTA,0.116
20,CGCGGTAG,-0.161
21,GCTACAGA,-0.201
22,CCTGACCA,-0.225
